Structures are written as SMILES. The whole screen tested about 310,000 compounds, of which about 2,200 (0.71%) showed an effect of 50% or more. The effect is printed as a negative number. Some of the results follow.

In the test the target is human ether-à-go-go-related gene (hERG) potassium channel (human, UniProt Q12809). Description: primary screen, population patch clamp on CHO cells stably expressing hERG.
Chain of human ether-à-go-go-related gene (hERG) potassium channel (Q12809 whole entry, looked up): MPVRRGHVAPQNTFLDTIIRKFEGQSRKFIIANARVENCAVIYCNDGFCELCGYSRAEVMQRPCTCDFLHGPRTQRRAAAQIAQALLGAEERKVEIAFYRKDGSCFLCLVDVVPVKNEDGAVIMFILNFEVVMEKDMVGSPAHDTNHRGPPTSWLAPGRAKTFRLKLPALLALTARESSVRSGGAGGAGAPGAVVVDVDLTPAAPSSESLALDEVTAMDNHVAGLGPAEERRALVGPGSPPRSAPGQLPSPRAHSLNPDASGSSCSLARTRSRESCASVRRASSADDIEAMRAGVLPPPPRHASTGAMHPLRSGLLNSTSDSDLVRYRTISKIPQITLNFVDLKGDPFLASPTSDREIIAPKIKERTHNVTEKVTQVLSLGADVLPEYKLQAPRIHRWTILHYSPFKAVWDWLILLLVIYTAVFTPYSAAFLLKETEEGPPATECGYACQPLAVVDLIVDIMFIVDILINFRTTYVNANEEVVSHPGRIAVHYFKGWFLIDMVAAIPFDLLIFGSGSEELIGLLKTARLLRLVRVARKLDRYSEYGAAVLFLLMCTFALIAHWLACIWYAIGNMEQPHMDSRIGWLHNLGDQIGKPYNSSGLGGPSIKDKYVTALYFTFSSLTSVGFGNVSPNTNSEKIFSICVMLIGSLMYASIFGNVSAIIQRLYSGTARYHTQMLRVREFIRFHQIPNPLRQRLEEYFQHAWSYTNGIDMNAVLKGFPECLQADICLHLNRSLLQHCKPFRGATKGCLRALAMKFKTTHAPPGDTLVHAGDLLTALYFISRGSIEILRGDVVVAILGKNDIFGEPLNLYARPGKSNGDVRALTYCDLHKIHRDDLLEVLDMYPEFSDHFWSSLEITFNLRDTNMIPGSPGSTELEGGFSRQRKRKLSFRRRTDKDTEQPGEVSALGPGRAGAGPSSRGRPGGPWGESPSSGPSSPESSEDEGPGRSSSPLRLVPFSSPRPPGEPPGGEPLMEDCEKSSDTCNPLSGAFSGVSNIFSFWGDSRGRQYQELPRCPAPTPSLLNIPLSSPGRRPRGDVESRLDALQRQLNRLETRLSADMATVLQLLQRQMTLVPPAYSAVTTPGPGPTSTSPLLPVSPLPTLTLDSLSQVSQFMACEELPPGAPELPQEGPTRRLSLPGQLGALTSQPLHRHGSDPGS
For `CCc1ccccc1NC(=S)N(CCOC)C(C)c1ccco1` (stereo not drawn), the “hERG current change (%, negative = inhibition) at 1uM” value is recorded as 5.16%.
As for `Cc1ccc(NC(=O)Cn2cnc3cc([N+](=O)[O-])ccc3c2=O)cc1`, the figure is 5.59%.
Turning to `CC(C)n1c(=O)n(CC(=O)NCC2CCCO2)c(=O)c2c3c(sc21)COC(C)(C)C3` (stereo not drawn), the “hERG current change (%, negative = inhibition) at 1uM” value is 10.8%.
For the compound `CCOC(=O)C1CCCN(C(=O)CCc2nnc(-c3ccc(C(C)=O)s3)o2)C1` (stereo not drawn), the “hERG current change (%, negative = inhibition) at 1uM” value was found to be 17.8%.
As for `COCCNC(=S)N/N=C(\C)c1ccc(OC(F)F)cc1`, the figure is 5.64%.
As for `CCOc1ccc(-n2nc(C(=O)N3CCN(CC)CC3)c3ccccc3c2=O)cc1`, the figure is -1.35%; as for `CON(c1nc(N(C)C)nc(N(C)C)n1)S(=O)(=O)c1ccccc1Cl`, 15.5%; as for `CCOC(=O)C1CCN(C(=O)CNS(=O)(=O)c2cccs2)CC1`, 7.9%.
As for `COc1ccc(OCC(=O)NNC(=O)C2CCN(c3ncnc4sc(C)c(C)c34)CC2)cc1`, the figure is 5.1%; as for `Cc1cccc(Nc2c3c(nc4ccccc24)CCC3)c1.Cl`, -30.1%; as for `O=C(Cn1nnc(-c2ccccc2)n1)NC(=O)NC1CCCC1`, 14.2%.
As for `Cc1cc(C(=O)COC(=O)c2ccccc2O)c(C)n1Cc1cccs1`, the “hERG current change (%, negative = inhibition) at 1uM” value turned out to be 0.119%.
Regarding `Cc1ccc(O)c(NC(=O)c2cccc(NC(=O)c3ccco3)c2)c1`, the “hERG current change (%, negative = inhibition) at 1uM” value is on record as -11.7%.
Regarding `Cc1cccc(C)c1NC(=O)CN(C)C(=O)C1CCCCC1`, the “hERG current change (%, negative = inhibition) at 1uM” value worked out at 7.36%.
As for `CCOc1ccc2nc(Cl)c(/C=C/C(=O)c3ccco3)cc2c1`, the figure is 17.1%; as for `COc1ccc(C)cc1NC(=O)CN1C(=O)CSc2ccc(S(=O)(=O)N3CCCC3)cc21`, 21.9%; as for `Nc1nc(SCC(=O)NCCCN2CCOCC2)nc2sc3c(c12)CCC3`, 3.95%.
With `CN(CCO)c1c2c(nc3cc(-c4cccc(F)c4)nn13)CCCC2` the figure was -0.969%.
With `O=C(NC1CCCC1)c1c[nH]c2ccc(F)cc2c1=O` the figure was 12.7%; with `C=CCn1cc(C(=O)NCc2ccco2)c(=O)c2cc(S(=O)(=O)N3CCCCCC3)ccc21`, 8.93%.
On to `O=S(=O)(c1cc(Cl)c(Cl)cc1Cl)N1CCN2CCCC2C1` (stereo not drawn), for which the “hERG current change (%, negative = inhibition) at 1uM” value came to 19.6%.
`Cc1ccc(-n2cccc2/C=C2\C(=N)N3N=C(C(C)C)SC3=NC2=O)cc1`: the “hERG current change (%, negative = inhibition) at 1uM” value turned out to be 14.6%.
As for `CC(C)(C)c1cc(C(F)(F)F)c(C#N)c(=O)[nH]1`, the figure is 10.8%; as for `Cc1ccc(C(=O)COC(=O)c2ccc3c(c2)C(=O)N(c2cccc4ncccc24)C3=O)cc1C`, 4.09%; as for `Cc1c(Cl)cccc1NC(=O)CSc1nnc(CCNC(=O)OC(C)(C)C)o1`, -12.4%.
As to `Cc1cc(C)nc(/N=C(\N)Nc2ccc(S(=O)(=O)Nc3nccc(C)n3)cc2)n1`, the “hERG current change (%, negative = inhibition) at 1uM” value worked out at 19.9%.
With `N#CC1=C2N=C(N)c3ccccc3N2C2=C(C(=O)CCC2)C1c1ccc(F)cc1` (stereo not drawn), the “hERG current change (%, negative = inhibition) at 1uM” value worked out at 0.0442%.
As for `Cc1ccc(C2C3=C(CC(C)(C)CC3=O)NC3=C2C(=O)c2ccccc23)cc1` (stereo not drawn), the figure is 14.6%.
With `CC(C)(C)NC(=O)C(c1ccco1)N(C(=O)c1csnn1)c1ccccc1` (stereo not drawn) the figure was 9.09%; with `C[C@@H]1C(=O)O[C@H]2[C@H]1CC[C@@]1(C)C(=O)C=C[C@@](C)(O)[C@H]21`, 15.4%; with `Cc1cc(C)n(-c2nc(NC(C)C)nc(NC(C)C)n2)n1`, 4.83%.
In the case of `CC(CNC(=O)CCS(=O)(=O)c1ccc2c(c1)oc(=O)n2C)c1ccccc1` (stereo not drawn), the “hERG current change (%, negative = inhibition) at 1uM” value worked out at 12.8%.
As for `CCOc1cc(/C=C2\C(=N)N3N=CSC3=NC2=O)ccc1OS(=O)(=O)c1ccccc1`, the figure is 7.28%.
As for `Cc1ccc(C(=O)OC(C)CN2C(C)CCCC2C)cc1.Cl` (stereo not drawn), the figure is -9.8%; as for `C=CCNc1nc(Cl)nc(Nc2ccc(OC)cc2)n1`, 5.46%.
As for `O=C(O)c1ccccc1-c1ccccc1C(=O)NNc1ccc([N+](=O)[O-])cc1`, the figure is 1.86%; as for `COCCNC(=O)CN1C(=O)COc2ccc(Cl)cc21`, 14.7%.
On to `Cc1ccc(C2(C)NC(=O)N(CC(=O)c3ccc4c(c3)OCCO4)C2=O)cc1` (stereo not drawn), for which the “hERG current change (%, negative = inhibition) at 1uM” value turned out to be 1.5%.
With `Cc1cccnc1NC(N)=S`, the “hERG current change (%, negative = inhibition) at 1uM” value was determined as 8.16%.
As for `Cc1ccc(C)c(S(=O)(=O)N2CCN(C(=O)Cn3[nH]c(=O)c4ccccc4c3=O)CC2)c1`, the figure is 14.4%.
With `Cc1c(CN(C)C)c2c(n1Cc1ccccc1)C(=O)c1ccccc1-2.Cl` the figure was -79%; with `CCCCCn1c(=O)[nH]c2cc(C(=O)NCCN3CCOCC3)ccc2c1=O`, 6.68%; with `c1cnc2c(c1)ccc1ncccc12`, 11.5%.
As for `COc1cccc2sc3ccc(NCCC4CCCN4C)cc3c(=O)c12` (stereo not drawn), the figure is 12.3%.
`COc1ccccc1NC1=CC(=O)CC(c2ccccc2)C1` (stereo not drawn): the “hERG current change (%, negative = inhibition) at 1uM” value is on record as 5.44%.
As for `O=C1CC(O)(c2ccccc2)C(c2ccccc2)=C1c1ccccc1` (stereo not drawn), the figure is 10.8%; as for `O=C(c1ccc2nc[nH]c2c1)N1CCN(S(=O)(=O)c2cccc(F)c2)CC1`, 15.3%; as for `Cc1cnnc2c1-c1nonc1CC2`, 9.57%.
On to `O=C(CSc1nc(-c2cccs2)cc(C(F)(F)F)n1)NCc1ccco1`, for which the “hERG current change (%, negative = inhibition) at 1uM” value was determined as 6.53%.
As to `Cc1ccccc1NC(=O)c1ccc2c(c1)CCN2S(C)(=O)=O`, the “hERG current change (%, negative = inhibition) at 1uM” value was 10.7%.
With `COc1ccc(S(=O)(=O)N(C)CC(=O)Nc2ccc(C)cc2)cc1OC` the figure was -6.41%.
With `Cn1cnc([N+](=O)[O-])c1C(=O)Nc1cccc([N+](=O)[O-])c1` the figure was 2.07%; with `CC(C)/C=C1\CC/C(=C\c2cccnc2)C1=O`, 7.95%; with `CCn1c(SCC(=O)Nc2cc(C)on2)nc2sc3c(c2c1=O)CCCC3`, 13.1%.
With `O=C(Nc1ccc(S(=O)(=O)NCc2cccnc2)cc1)c1ccco1` the figure was 8.59%.
In the case of `O=C(CN1CCC(n2nnc3cc(F)ccc32)CC1)Nc1ccc2c(c1)CCC2`, the “hERG current change (%, negative = inhibition) at 1uM” value was 1.69%.
`COc1ccc(/C=N/NC(=S)Nc2ccccc2[N+](=O)[O-])cc1O`: the “hERG current change (%, negative = inhibition) at 1uM” value is listed as 8.11%.
As for `CSc1nc(C)cc(Oc2ccc(=O)[nH]n2)n1`, the figure is 9.58%; as for `O=C(c1ccccc1)c1cc2cc(Cl)ccc2[nH]1`, 5.63%.
On to `CN(C)C(=O)c1ccccc1Sc1cc(Cl)ccc1Cl`, for which the “hERG current change (%, negative = inhibition) at 1uM” value is recorded as 4.4%.
Take `O=C(NCCSc1c(-c2ccccc2)[nH]c2ccccc12)c1cc2ccccc2oc1=O`: the “hERG current change (%, negative = inhibition) at 1uM” value stood at 3.97%.
With `COc1ccc(N2CCN(CC(=O)Nc3cc(C)on3)CC2)cc1.O=C(O)C(=O)O` the figure was 11%; with `Cc1noc(C)c1COc1ccc(C(=O)OCC(=O)Nc2cccc(S(=O)(=O)N3CCOCC3)c2)cc1`, 10.1%.
Regarding `O=C(NCCc1ccc(Cl)cc1)c1cc(-c2ccccn2)nc2ccccc12`, the “hERG current change (%, negative = inhibition) at 1uM” value worked out at 17.2%.
As for `N#CC1(Nc2ccccc2)C(=O)Nc2ccccc21` (stereo not drawn), the figure is 0.667%; as for `O=C(NCc1ccccc1)OCCN1CCN(Cc2ccccc2)CCC1=O`, 3.59%.
As to `COC(=O)c1ccc(NC(=S)NCCCN2CCCC2=O)cc1`, the “hERG current change (%, negative = inhibition) at 1uM” value stood at 10.9%.
As for `CCOC(=O)C1=C(c2ccccc2)Nc2ncnn2C1c1ccc(O)cc1` (stereo not drawn), the figure is 3.62%; as for `Fc1cccc(-n2c(-c3ccco3)nc3nc4ccccc4nc32)c1`, 11.6%; as for `O=C(COC(=O)c1ccccc1F)c1ccc(-n2nncc2-c2ccco2)cc1`, 9.03%.
With `Cc1cccc(NC(=O)CSc2nnc(C3CC3)n2CC2CCCO2)c1C` (stereo not drawn) the figure was 16%.
Consider `COc1ccc(S(=O)(=O)NCCN2CCOCC2)cc1Br`, for which the “hERG current change (%, negative = inhibition) at 1uM” value worked out at 21%.
With `CCOC(=O)N1CCC(Nc2c(-c3ccc(C)cc3)c(=O)c2=O)CC1` the figure was 1.74%; with `S=C1NCN(C2CCCCC2)CN1CCc1ccccc1`, 12.5%; with `COc1ccc(Cn2ccc(=O)c(Cc3c(Cl)cccc3Cl)c2C)cc1`, 8.07%.
For `O=C(c1ccc(F)cc1)N1CCCCC(S(=O)(=O)c2ccccc2)C1=O` (stereo not drawn), the “hERG current change (%, negative = inhibition) at 1uM” value was 19.3%.
As for `CC(=C/c1ccccc1)/C=N/NC(=O)c1ccc2nc[nH]c2c1`, the figure is 6.11%; as for `O=C(NNC(=O)c1c(O)c2ccccc2[nH]c1=O)c1ccccc1`, 16.8%; as for `O=C(Nc1nnc(C2CC2)s1)c1cc([N+](=O)[O-])ccc1N1CCCCC1`, -7.51%.
Turning to `Nc1c(/C=C2/C=CC(=O)C(O)=C2)c(=O)nc2sc(CC(=O)N3CCCCC3)nn12`, the “hERG current change (%, negative = inhibition) at 1uM” value is 19%.
As for `O=C(NC(O)C(=O)c1cccs1)c1cccnc1` (stereo not drawn), the figure is 11.3%; as for `Cc1ccc([C@@H]2[C@@H]3C(=O)N(C)C(=O)[C@@H]3[C@]3(C)C(=O)N(Cc4ccccc4)CC(=O)N23)o1`, 13.7%; as for `Cc1nn(Cc2cccc(C(N)=O)c2)c(C)c1Br`, 1.47%.
With `Cc1ccccc1-c1nc(CS(=O)(=O)CC(=O)NCCN2CCOCC2)c(C)o1`, the “hERG current change (%, negative = inhibition) at 1uM” value was determined as 7.93%.
As for `O=C(Nc1ccc2ccccc2c1)Nc1ccc2snnc2c1`, the “hERG current change (%, negative = inhibition) at 1uM” value came out at 1.89%.
As for `CCOC(=O)c1ccc(-n2c(CN3CCOCC3)nc3ccc([N+](=O)[O-])cc3c2=O)cc1`, the figure is 5.65%.
As for `O=C(O)/C=C\C(=O)Nc1ccc(Oc2ccc(Br)cc2)cc1`, the figure is 12.1%.

The values are drawn from article PMC4336329 (PLoS ONE, 2015).
